# Assay results reported in PubChem BioAssay AID463173 (ICCB-Longwood Screening Facility, Harvard Medical School, 2010).
# The whole screen tested about 52,000 compounds, of which about 4,300 (8.3%) were called active. Cut-off read from the data, not from the text of the source: active = survival mostly below about 52% (no sharp cut-off); inactive = mostly above about 56%. This is one part of the list.
# Tested on: DeltatarO mutant
# Test: growth inhibition of S. aureus wild type versus tarO mutant, primary screen, teichoic acid synthesis inhibitors, RN4220, OD600 (AID 463173)
# Conditions: OD600, 18 h, stronger effect = lower value, screened at 18.75 µg/mL (by protocol)
row,SMILES,survival
1,COc1ccc(NC(=O)c2ccc3c(c2)CCN3S(=O)(=O)c2ccccc2)cc1,inactive: 92%
2,COc1cc2c(cc1OC)n(CC(=O)c1ccc(C)cc1)c(=O)n1nc(CCn3nc(C)cc3C)nc21,inactive: 100%
3,CCOc1ccc(CC(=O)NCc2ccc3c(c2)CCN3C(C)=O)cc1OCC,inactive: 102%
4,CN(C)CCNC(=O)Cn1nc(N2CCN(c3ccccc3)CC2)ccc1=O,inactive: 86%
5,COc1ccc(NC(=O)CCc2nnc3n(CC(C)C)c(=O)c4ccccc4n23)cc1OC,inactive: 87%
6,CC(C)(C)OC(=O)N1CCC(c2c(C(=O)N3CCN(c4ncccn4)CC3)cnn2-c2cccc(F)c2)CC1,inactive: 130%
7,O=c1c2nncn2ccn1-c1ccc(F)c(F)c1,inactive: 90%
8,O=C(c1cc2cc3ccc(Cl)cc3nc2o1)N1CCN(c2cccc(Cl)c2)CC1,active: 46%
9,O=C(CN1C(=O)CSc2ccc(S(=O)(=O)N3CCCC3)cc21)NCc1ccc(F)cc1Cl,inactive: 82%
10,Cc1cccc(NC(=O)N2CC=C(c3c[nH]c4ccccc34)CC2)c1C,inactive: 73%
11,CCN(CC)C(=O)C1CCCN(c2ncnc3c2c(-c2ccccc2)cn3-c2cccc(C)c2)C1 (stereo not drawn),inactive: 94%
12,COCCCNC(=O)C1CCN(c2nc3ccc(Cl)cc3[nH]2)CC1,inactive: 118%
13,CC1=C(c2ccc(C(C)C)cc2)S(=O)(=O)NC1=NCc1ccc(Cl)cc1,inactive: 101%
14,CCOC(=O)c1ccccc1NC(=O)c1nn(-c2ccc(OC)c(Cl)c2)c(=O)c2c1c1ccccc1n2C,inactive: 103%
15,Cc1sc2ncn(CC(=O)N3CCN(c4ccccc4)CC3)c(=O)c2c1S(=O)(=O)N1CCC(C)CC1,inactive: 78%
16,O=c1c2sccc2n(Cc2cc(=O)n3cc(Cl)ccc3n2)c(=O)n1-c1ccccc1,inactive: 56%
17,O=C1CCSc2ccc(S(=O)(=O)Nc3cccc(C(F)(F)F)c3)cc2N1,active: -2%
18,O=c1c(N2CCN(c3cccc(Cl)c3)CC2)csc2ccc(Cl)cc12,inactive: 144%
19,CCc1cccc(C)c1NC(=O)Cn1ncc2c3ccccc3n(Cc3ccccc3)c2c1=O,inactive: 86%
20,COc1ccc(-c2cn3nc(SCC(=O)Nc4cc(C)cc(C)c4)ccc3n2)cc1,inactive: 71%
21,CCCSc1ncnc2c1c(-c1ccccc1)cn2-c1ccccc1OC,active: 2%
22,COc1ccc(OC)c(NC(=O)CS(=O)(=O)Cc2nc(-c3ccc(C)cc3)oc2C)c1,inactive: 71%

row,SMILES,survival
1,CCOc1ccc2c(c1)c(=O)c(S(=O)(=O)c1ccc(CC)cc1)cn2Cc1cccc(Cl)c1,inactive: 70%
2,Cc1ccc(Cl)cc1Nc1nn2c(=O)c3ccc(C(=O)NC4CCCCC4)cc3nc2s1,inactive: 123%
3,CCn1c(SC)nnc1C1CCCN(C(=O)Cc2cccnc2)C1 (stereo not drawn),inactive: 106%
4,CCCCOC(=O)c1ccc(Nc2nc3ccc(C(=O)c4ccccc4)cc3n3cnnc23)cc1,inactive: 54%
5,COc1ccc(CNC(=O)c2ccc(CS(=O)(=O)c3ccc(Br)cc3)o2)cc1,inactive: 85%
6,CN(C)c1ccc(CNC23CN4CN(CN(C4)C2)C3)cc1,inactive: 97%
7,CCOc1ccc(OCC)c(NC(=O)c2cc(-c3cccs3)nc3ccccc23)c1,inactive: 85%
8,CCC(C)NC(=O)c1cn(CC)c2ccc(S(=O)(=O)N3CCc4ccccc4C3)cc2c1=O (stereo not drawn),active: 35%
9,O=C(NCc1ccccc1Cl)c1ccc2c(c1)N(Cc1ccccc1)CCS2,inactive: 79%
10,O=C(CSc1nc2ccccc2n1Cc1cccc(F)c1)N1CCN(c2ccc(F)cc2)CC1,inactive: 64%
11,O=C(NC1CCCCCC1)c1ccc(CS(=O)c2cccc(Cl)c2)o1 (stereo not drawn),inactive: 117%
12,Cc1cc(C)c(NC(=O)Cn2c(=O)n(CC(=O)NCCc3ccccc3)c(=O)c3ccccc32)c(C)c1,inactive: 86%
13,CCOC(=O)c1[nH]c(C)c(CCC(=O)Nc2cc(Cl)c(OC)cc2OC)c1C,inactive: 122%
14,CS(=O)(=O)N(CC(=O)N1CCCCCC1)c1cc(Cl)cc(Cl)c1,inactive: 85%
15,Cc1cc(N2CCC(C)CC2)nc2ccc(NC(=O)CCC(=O)N3CCN(c4ccccc4F)CC3)cc12,inactive: 52%
16,O=S(=O)(c1ccc2nc(Nc3ccc(F)cc3)ccc2c1)N1CCCC1,inactive: 75%
17,Cc1ccc(C)c(CNC(=O)CN2C(=O)CSc3ccc(S(=O)(=O)N(C)C)cc32)c1,inactive: 87%
18,Cc1ccc(C)c2[nH]c(=O)c(CN(CCN3CCCC3)C(=O)Nc3cccc(Cl)c3)cc12,inactive: 64%
19,COc1ccccc1N1CCN(S(=O)(=O)CCNC(=O)C(c2ccccc2)c2ccccc2)CC1,inactive: 76%
20,COc1ccc(S(=O)(=O)N(CCc2ccccc2)CC(=O)Nc2cc(C)cc(C)c2)cc1OC,inactive: 54%
21,CCc1ccc(NC(=O)Cn2c(=O)n(CCc3ccccc3)c(=O)c3sc4ccccc4c32)cc1,inactive: 79%
22,CC(=O)c1cccc(N2C(=O)CN(S(C)(=O)=O)CC2(C)C(=O)NC2CCCC2)c1 (stereo not drawn),inactive: 79%

row,SMILES,survival
1,Cc1nc(-c2ccc(C)c(S(=O)(=O)N3CCC(C(=O)NCc4ccc(F)cc4)CC3)c2)no1,inactive: 88%
2,CCOCCCn1c(=N)c(C(=O)NCc2ccccc2)cc2c(=O)n3ccccc3nc21,inactive: 74%
3,COc1cccc(NC(=O)Cn2c(=O)n(CCc3cccc(C)c3)c(=O)c3ccccc32)c1,inactive: 84%
4,Cc1c2cnn(-c3ccccc3)c(=O)c2c(C)n1C(C)C(=O)NCc1cccc(Br)c1 (stereo not drawn),inactive: 66%
5,COc1ccccc1N(CC(N)=O)S(=O)(=O)c1ccccc1,inactive: 94%
6,O=c1[nH]cc(N=Cc2cccnc2)c(=O)[nH]1,inactive: 93%
7,Cc1cccc(NC(=O)c2c(NC(=O)c3ccco3)sc3c2CCC(C)C3)c1 (stereo not drawn),inactive: 53%
8,Cc1ccc(NC(=O)Cn2nc(-c3ccccc3)nc(Cc3ccccc3)c2=O)cc1,inactive: 83%
9,COc1cccc(CNC(=O)c2ccc3c(c2)nc2n3CCC(C)C2)c1 (stereo not drawn),inactive: 72%
10,CCCN(CCC)C(=O)c1nn(C)c2c1CSc1ccccc1-2,inactive: 107%
11,CC(C)C(=O)Nc1cccc(C(=O)Nc2nnc(C(F)(F)F)s2)c1,inactive: 58%
12,CCOc1ccccc1NC(=O)CCc1c(C)nc2cc(-c3ccccc3)nn2c1C,inactive: 46%
13,Cc1ccc(NC(=O)CN(c2ccc(C)cc2)S(=O)(=O)c2cccc3nonc23)cc1,inactive: 86%
14,CCCCn1c(CNC(=O)C23CC4CC(CC(C4)C2)C3)nnc1SCC(=O)Nc1ccc(F)cc1,active: 54%
15,Cc1cccc(NC(=O)Nc2nnc(N3CCCC3)s2)c1,inactive: 103%
16,Cc1cccc(Cn2c(=O)n(Cc3ccccc3)c(=O)c3sc4ccccc4c32)c1,inactive: 93%
17,Cc1cc(C(=O)NCc2ccccc2)c2c(C)nn(-c3cccc(Cl)c3C)c2n1,inactive: 134%
18,Cc1ccccc1C(=O)Nc1ccccc1-c1nc(-c2ccccc2)no1,inactive: 91%
19,Cc1nc(-c2cccc(F)c2)sc1CCNC(=O)C(=O)Nc1ccc2c(c1)OCCO2,inactive: 71%
20,CCc1nc2nc(C)c(NS(=O)(=O)c3ccc(F)c(C)c3)c(=O)n2[nH]1,inactive: 123%
21,CCOc1ccc2nc(N3CCCC(C(=O)NCCc4ccc(C)cc4)C3)sc2c1 (stereo not drawn),inactive: 64%
22,Cc1ccc(NC(=O)CSc2nc3ccccc3n2CC(=O)N(C)C2CCCCC2)cc1C,inactive: 94%

row,SMILES,survival
1,CC(C(=O)Nc1ccccc1)n1nnc2sc3c(c2c1=O)CCCC3 (stereo not drawn),inactive: 61%
2,CCc1nc2ccc(NC(C)=O)cc2c(=O)n1Cc1ccccc1,inactive: 79%
3,Cc1cccc(NC(=O)COc2ccc3oc4c(c3c2)CCCC4)c1,active: 40%
4,COc1ccc(Cl)cc1NC(=O)Cn1nc(C(F)(F)F)cc1C,inactive: 74%
5,CC(C)OC(=O)CSc1nnnn1C,inactive: 75%
6,COc1ccc(CNC(=O)C(=O)NCC(c2cccs2)S(=O)(=O)c2cccs2)cc1 (stereo not drawn),inactive: 89%
7,O=C(CCc1nc(-c2cccs2)no1)Nc1ccc([N+](=O)[O-])cc1,inactive: 92%
8,N#CSc1ccc2nc(N)sc2c1,inactive: 66%
9,Cc1ccc(S(=O)(=O)C(CNS(=O)(=O)c2ccc(F)c(C)c2)c2cccs2)cc1 (stereo not drawn),inactive: 98%
10,O=C(NCCS(=O)(=O)N1CCN(c2ccccc2F)CC1)C1CC(=O)N(c2ccc(F)cc2)C1 (stereo not drawn),inactive: 90%
11,CCc1ccccc1N(CC)C(=O)Cn1nc(Cc2ccncc2)c2ccccc2c1=O,inactive: 78%
12,Cc1ccc(-n2cnc3cc(C(=O)NCCC4=CCCCC4)ccc32)cc1Cl,inactive: 92%
13,CCOc1ccc(OCC)c(NC(=O)C2CCCN(S(=O)(=O)c3ccc(C)cc3)C2)c1 (stereo not drawn),inactive: 60%
14,CCCN(CCC)C(=O)Cn1c(=O)n(-c2ccc(Cl)c(Cl)c2)c(=O)c2c(C)c(C(=O)N(C)C)sc21,inactive: 115%
15,CCN(CC)S(=O)(=O)c1ccc(NC(=O)c2ccccc2)cc1,inactive: 77%
16,O=C(Cn1c(=O)n(-c2ccccc2Cl)c(=O)c2sc3ccccc3c21)NC1CCCC1,inactive: 107%
17,CCOc1ccc(-c2nnc(SCC(=O)N(CC)c3cccc(C)c3)o2)cc1,inactive: 63%
18,Cc1ccn2c(Nc3ccc4c(c3)OCCO4)c(-c3ccc(N(C)C)cc3)nc2c1,inactive: 102%
19,COc1ccccc1CNC(=O)CSc1cc(C)[nH]c(=O)n1,inactive: 99%
20,COc1ccc(-c2c(C)nn3c(N4CCN(c5cc(Cl)ccc5C)CC4)cc(C)nc23)cc1OC,inactive: 85%
21,O=C(NCc1ccccc1Cl)c1ccc(-n2cnc3cccnc32)cc1,inactive: 71%
22,CCOc1ccccc1NC(=O)Cn1nc(N2CCN(c3ccccc3)CC2)ccc1=O,inactive: 82%
